Reference: PubChem BioAssay AID1458 (National Center for Advancing Translational Sciences (NCATS), 2008)
Hit rate of the full screen: of about 210,000 compounds, about 5,900 (2.8%) were called active. Inconclusive results, whose numbers are uncertain, are shown with a selection of clear calls. Calls follow the shape of the dose curve; as a rule, active = well fitted activation curve with a large enough effect; inconclusive = small, poorly fitted or top-dose-only effect; inactive = no such curve, though single readings can be large or run the other way. Potencies of inconclusive entries are doubtful fits and often do not repeat. Some compounds were tested as several samples or in several runs, with calls that do not always agree.

Experiment: qHTS Assay for Enhancers of SMN2 Splice Variant Expression; also: nearly all actives have a fitted effect of over 55% in size; as to activity change, positive = activation: % of control where 0% means no effect
Conditions: HEK293 SMN2-luciferase splicing reporter, luminescence, 30-36 h; activity change, positive = activation: at 46.1 µM (top of the series)
Procedure, shortened: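 qHTS luciferase splicing reporter: luminescence rises when SMN2 exon 7 is included in transfected HEK293 cells. Compound exposure lasted 30-36 h at 37C, with 4.5 mM final sodium butyrate as control, followed by a ONE-Glo read.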
Potency is read from the fitted curve at half-maximal effect; tags tell the direction and shape of the fitted curve.

Compound | Potency | activity change, positive = activation
CCOc1ccc2nc(NC(=O)CSc3ccccc3)sc2c1 | inconclusive: 11.2 µM [activator, partial curve] | –
COC(=O)c1ccc2c(=O)n(NC(=O)C(c3ccccc3)c3ccccc3)c(=S)[nH]c2c1 | – | inactive: -17.5%
CCCCOC(=O)c1ccc(NC(=O)c2ccc3c(c2)CCN3S(=O)(=O)c2ccccc2)cc1 | – | inactive: -57.6%
Nc1nc(SCC(=O)NCc2ccc(F)cc2)[nH]c(=O)c1NC(=O)c1ccc(Cl)cc1 | inconclusive: 0.0708 µM [activator, partial curve] | –
OC(Cc1ccccc1)(Cc1ccccc1)c1ccccc1 | – | inactive: -6.61% [at 9.22 µM]
CCN1CCN(c2ccc(S(=O)(=O)N3CCCCC3)cc2NC(=O)c2ccc(F)cc2)CC1 | inconclusive: 15.8 µM [activator, partial curve, poor fit] | –
COCCCNC(=O)c1cc2c(=O)n3cccc(C)c3nc2n(C(C)C)c1=N | inconclusive: 0.0794 µM [activator, full curve, poor fit] | –
O=C(O)c1cc(Br)ccc1NN=C1CCCCC1 | – | inactive: -10.2%
O=C(NNC(=S)Nc1ccccc1)Nc1ccccc1 | active: 5.62 µM | –
COc1ccc(N2CSC3=C(C#N)C(c4cccs4)CC(=O)N3C2)cc1 (stereo not drawn) | inconclusive: 12.6 µM [activator, partial curve, poor fit] | –
COc1ccc(-c2csc(C3=C(O)CN(CCCN4CCCC4=O)C3=N)n2)cc1OC | inconclusive: 14.1 µM [activator, partial curve] | –
CCC(=O)Nc1nnc(SCC(=O)c2ccc3c(c2)Cc2ccccc2-3)s1 | inconclusive: 28.2 µM [activator, single point] | –
CCN(CC)C(=O)C(=O)Nc1ccc(F)c(Cl)c1 | inconclusive: 20 µM [activator, partial curve, poor fit] | –
CC(=O)c1cc2cc(O)ccc2o1 | inconclusive: 35.5 µM [activator, single point] | –
O=C(NCc1cccc(Cl)c1)c1ccc2nc[nH]c2c1 | – | inactive: 4.22%
C=CCNc1nc2ccccc2nc1NS(=O)(=O)c1cccs1 | inconclusive: 0.398 µM [activator, full curve, poor fit] | –
S=C(NCc1ccccn1)Nc1ccccc1Cl | inconclusive: 20 µM [activator, partial curve, poor fit] | –
CCCn1cnc2cc(NCc3ccccn3)ccc21 | active: 12.6 µM | –
COc1ccccc1/C=C/C=N/NC(=O)c1ccc(=O)n(C)c1 | inconclusive: 15.8 µM [activator, partial curve] | –
Cc1ccc(CSc2ccc(-c3cccs3)nn2)cc1 | active: 14.1 µM | –
CC(=O)c1cccc(S(=O)(=O)N2CCN(c3ccccc3F)CC2)c1 | inactive | –
O=C(COc1cccc2cccnc12)Nc1nccs1 | inconclusive: 10 µM [activator, single point] | –
Cc1ccc2c(ccc(=S)n2C)c1 | – | inactive: -9.58%
Cc1cc(C(=O)CSc2n[nH]c(N)n2)c(C)n1-c1cccc(F)c1 | inconclusive: 0.398 µM [activator, full curve, poor fit] | –
Cc1cccn2c(CN3CCCN(C=O)CC3)c(C(=O)N(C)CCc3ccccc3)nc12 | – | inactive: -6.25%

Compound | Potency | activity change, positive = activation
CC(=O)c1cccc(NC(=O)c2cc(-c3ccc(C)cc3)on2)c1 | inconclusive: 35.5 µM [activator, single point] | –
CCOc1cc2sc(N3CCC(C(=O)Nc4ccccc4Cl)CC3)nc2cc1Br | inconclusive: 35.5 µM [activator, single point] | –
CCC(C)(C)C(=O)OC1CC(C)C=C2C=CC(C)C(CCC3CC(O)CC(=O)O3)C21 (stereo not drawn) | inconclusive: 14.1 µM [activator, single point] | –
COc1ccc(C)cc1S(=O)(=O)NC1CCCC1 | inconclusive: 5.62 µM [activator, single point] | –
Cc1cc(C)c(S(=O)(=O)OC[C@H]2C=CC[C@@H](CCC[C@H]3O[C@H](C(=O)OC(C)C)CC[C@@H]3C)O2)c(C)c1 | – | inactive: 11.7%
Cc1ccc2nc(SCC(=O)N3CCOCC3)[nH]c2c1 | inconclusive: 15.8 µM [activator, single point] | –
c1ccc2c(CSCc3cccc4ccccc34)cccc2c1 | – | inactive: -6.6% [at 9.22 µM]
CCCc1nc(SCC(=O)c2ccccc2)c2c(=O)n(C)c(=O)n(C)c2n1 | – | inactive: -51.9%
CN=c1scc(-c2ccccc2F)n1/N=C/c1ccc(O)c(O)c1O | active: 0.631 µM | –
COc1ccc(NC(=O)Cc2ccccc2)cc1 | inconclusive: 12.6 µM [activator, partial curve] | –
O=C(CCCN1CCOCC1)c1ccc2c(c1)OCCO2 | inconclusive: 11.2 µM [activator, partial curve, poor fit] | –
COc1cccc2c1nc(C)c1cc(C)oc12 | inconclusive: 0.0562 µM [activator, partial curve, poor fit] | –
Cc1ccc(N2CCN(CCc3nc4cc(NC(=O)c5ccco5)ccc4n3C)CC2)cc1 | – | inactive: -32.3%
Cc1ccc(O)c(NC(=O)c2noc3c2CCCCC3)c1 | active: 3.98 µM | –
O=C(CSc1nccn1Cc1ccccc1)Nc1nccs1 | inconclusive: 5.62 µM [activator, partial curve] | –
COc1ccc(-n2nc(C(=O)N3CCN(c4cccc(C(F)(F)F)c4)CC3)c3c4ccccc4n(C)c3c2=O)cc1Cl | – | inactive: 15.1%
Cc1nnc(SCC2=C(C(=O)O)N3C(=O)[C@@H](NC(=O)Cn4cnnn4)[C@@H]3SC2)s1 | – | inactive: 1.75% [at 20.6 µM]
COC(=O)C1CCN(C(=O)/C=C/c2ccccc2)CC1 | active: 14.1 µM | –
Cc1ccc(/C(C#N)=C\c2ccc(N3CCOCC3)o2)cc1 | active: 12.6 µM | –
O=C(CN(Cc1ccccc1)S(=O)(=O)c1ccc(S(=O)(=O)N2CCOCC2)cc1)Nc1ccccc1 | inconclusive: 0.158 µM [activator, full curve, poor fit] | –
Cc1cccc(CNC(=O)CCCN2C(=O)COc3ccc(C)cc32)c1 | – | inactive: -5.04%
O=c1oc(-c2cccs2)nc2sc3c(c12)CCC3 | inconclusive: 11.2 µM [activator, partial curve, poor fit] | –
N#Cc1cccc(NC(=O)N2CCC3(CC2)CCN(C(=O)c2cnccn2)CC3)c1 | – | inactive: -13.9%
CC(CNC(=O)c1cc(Cl)ccc1[N+](=O)[O-])NC(=O)c1cc(Cl)ccc1[N+](=O)[O-] (stereo not drawn) | inconclusive: 1.26 µM [activator, partial curve] | –
O=C1CC(c2ccccc2)C(=O)N1c1cccc(O)c1 (stereo not drawn) | inconclusive: 25.1 µM [activator, partial curve, poor fit] | –

Compound | Potency | activity change, positive = activation
C[C@@H](NC(=O)CN(c1ccccc1)S(=O)(=O)N(C)C)c1ccccc1 | – | inactive: -11.2%
CCOc1ccc(-c2cc(CCCC(=O)NCCc3ccc(OCC)c(OCC)c3)no2)cc1 | – | inactive: 20.1%
Cc1cc(Oc2cc(N)cc([N+](=O)[O-])c2)ccc1Cl | – | inactive: -14.9%
COc1ccc(OC)c(C2C(C(=O)c3cccs3)=C(O)C(=O)N2c2cc(C)on2)c1 (stereo not drawn) | inconclusive: 5.01 µM [activator, full curve] | –
Cc1ccc2nc(-c3sc4nc(C)cc(C)c4c3N)[nH]c2c1 | active: 2.51 µM | –
c1ccc(-n2nnnc2-n2nnc3ccccc32)cc1 | inconclusive: 0.398 µM [activator, full curve, poor fit] | –
c1cncc(-c2nnc(-c3cccnc3)nn2)c1 | – | inactive: -89.8%
COc1ccc(-c2nc3ccccn3c2C=O)cc1 | inconclusive: 20 µM [activator, partial curve, poor fit] | –
C=CC[C@H]1CC(Cc2ccccc2)=C[C@H](CC=C)N1 | inconclusive: 0.794 µM [activator, full curve, poor fit] | –
CC/C(C)=C1\SC(N2CCN(C(C)=O)CC2)=NC1=O | inconclusive: 20 µM [activator, partial curve, poor fit] | –
COc1ccc(-c2cc(C(F)(F)F)nc(NCc3ccccc3)n2)cc1 | inconclusive: 35.5 µM [activator, single point] | –
COC(=O)c1cc(OC)c(OC)cc1NC(=O)c1c(-c2ccccc2)noc1C | inconclusive: 10 µM [activator, partial curve, poor fit] | –
COCCNC(=O)C1(CC(C)C)C=CCN1C(=O)OC (stereo not drawn) | inconclusive: 11.2 µM [activator, partial curve] | –
CN(C1CCCCC1)S(=O)(=O)c1ccc(NC(=O)C2CCCCC2)cc1 | inconclusive: 10 µM [activator, partial curve] | –
Cc1ccc2cccc(S(=O)(=O)Nc3ccc4c(c3)OCO4)c2n1 | active: 7.08 µM | –
CCCC(=O)Nc1cnc(NC(=O)c2cccc(F)c2)cc1C | active: 2 µM | –
Cc1c(-c2cc[n+]([O-])cc2)oc2ccc(Br)cc2c1=O | inconclusive: 12.6 µM [activator, single point] | –
COc1ccc(-c2cnnc(N/N=C/c3ccc(O)c(O)c3)n2)cc1 | inconclusive: 35.5 µM [activator, single point] | –
COc1cc(C(C(=O)NC(C)(C)C)N(Cc2ccccc2)C(=O)c2cnccn2)cc(OC)c1OC (stereo not drawn) | – | inactive: 2.5%
COc1cccc(OCCCCCN2CCOCC2)c1 | inconclusive: 10 µM [activator, partial curve, poor fit] | –
Cc1nn(C)c(C)c1NC(=O)c1ccc(S(=O)(=O)N(C)C)cc1 | inconclusive: 14.1 µM [activator, partial curve] | –
Cc1cccc(NC(=S)NNC(=O)c2csc(C(C)C)c2)c1 | active: 11.2 µM | –
C(=N/Nc1nccs1)/c1cccnc1 | inconclusive: 12.6 µM [activator, single point] | –
